No constants are given. Whether binding was seen depends on the method and setting. Binding seen in cells or lysates may run through a third protein. Some entries that bind do so weakly or less than the wild type. Tags and fused reporters may be left off the sequences shown.
Key:
GST-5-LO = target: T1, GST-5-LO (UniProt P48999); test: pull-down; GST pull-downs combined with BMMC lysates containing endogenous levels of the proteins; immunoblot; only the target purified
T1 sequence: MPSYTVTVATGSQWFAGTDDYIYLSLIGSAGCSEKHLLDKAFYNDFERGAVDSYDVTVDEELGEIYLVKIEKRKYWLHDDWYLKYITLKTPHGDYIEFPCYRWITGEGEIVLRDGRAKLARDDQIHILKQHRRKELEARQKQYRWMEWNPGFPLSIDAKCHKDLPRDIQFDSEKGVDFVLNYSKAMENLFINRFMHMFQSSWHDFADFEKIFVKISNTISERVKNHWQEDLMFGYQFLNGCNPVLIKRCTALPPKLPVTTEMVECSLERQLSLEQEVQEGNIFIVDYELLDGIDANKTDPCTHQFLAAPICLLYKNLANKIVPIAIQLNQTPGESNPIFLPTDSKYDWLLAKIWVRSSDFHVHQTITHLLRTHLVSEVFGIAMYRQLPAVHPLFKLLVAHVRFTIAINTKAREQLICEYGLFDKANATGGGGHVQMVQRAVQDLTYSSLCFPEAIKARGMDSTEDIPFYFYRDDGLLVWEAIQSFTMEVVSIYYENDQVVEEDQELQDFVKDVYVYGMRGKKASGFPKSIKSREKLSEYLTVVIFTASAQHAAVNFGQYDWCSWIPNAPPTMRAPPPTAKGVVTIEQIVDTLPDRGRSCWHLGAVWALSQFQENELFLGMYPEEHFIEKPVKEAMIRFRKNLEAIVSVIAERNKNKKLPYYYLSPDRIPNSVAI

[1] = target: T2, TS-5-LO (Twin-Strep-tagged 5-lipoxygenase) in BMMCL (UniProt P48999); test: pull-down; Strep-Tactin Superflow resin holds the TS-tagged protein from postnuclear lysates (1% CHAPS, 150 uM glutathione, pH 6.8, 4°C) of BMMCL, resting or antigen (TNP-BSA)-activated; immunoblot
T2 sequence: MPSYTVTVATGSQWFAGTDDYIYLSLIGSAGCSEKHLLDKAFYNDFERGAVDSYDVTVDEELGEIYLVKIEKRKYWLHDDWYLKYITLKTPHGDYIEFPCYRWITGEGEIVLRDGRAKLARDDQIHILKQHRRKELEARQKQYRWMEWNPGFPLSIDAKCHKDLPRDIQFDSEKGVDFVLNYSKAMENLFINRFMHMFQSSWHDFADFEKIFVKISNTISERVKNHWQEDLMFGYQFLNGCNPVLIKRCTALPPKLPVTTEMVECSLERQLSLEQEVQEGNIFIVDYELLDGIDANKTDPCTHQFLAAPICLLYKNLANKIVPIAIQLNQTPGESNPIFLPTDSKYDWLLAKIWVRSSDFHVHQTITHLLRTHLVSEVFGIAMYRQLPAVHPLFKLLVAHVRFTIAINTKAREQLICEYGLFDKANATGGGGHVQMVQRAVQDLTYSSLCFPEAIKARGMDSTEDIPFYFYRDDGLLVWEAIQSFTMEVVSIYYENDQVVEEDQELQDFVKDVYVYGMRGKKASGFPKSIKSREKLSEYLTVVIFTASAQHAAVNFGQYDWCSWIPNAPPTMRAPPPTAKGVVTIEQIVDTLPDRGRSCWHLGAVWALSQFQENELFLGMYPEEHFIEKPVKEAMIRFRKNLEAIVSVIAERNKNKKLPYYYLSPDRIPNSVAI

[2] = target: T3, TS-5-LO (Twin-Strep-tagged 5-lipoxygenase) in HEK293FT cells (UniProt P48999); test: pull-down; Strep-Tactin Superflow resin holds the TS-tagged protein from postnuclear lysates (1% CHAPS, 50 mM Hepes-KOH, 150 mM KOAc, pH 6.8, 4°C) of transduced HEK293FT cells, resting or activated with thapsigargin (0, 3, 15, 25 min); immunoblot
T3 sequence: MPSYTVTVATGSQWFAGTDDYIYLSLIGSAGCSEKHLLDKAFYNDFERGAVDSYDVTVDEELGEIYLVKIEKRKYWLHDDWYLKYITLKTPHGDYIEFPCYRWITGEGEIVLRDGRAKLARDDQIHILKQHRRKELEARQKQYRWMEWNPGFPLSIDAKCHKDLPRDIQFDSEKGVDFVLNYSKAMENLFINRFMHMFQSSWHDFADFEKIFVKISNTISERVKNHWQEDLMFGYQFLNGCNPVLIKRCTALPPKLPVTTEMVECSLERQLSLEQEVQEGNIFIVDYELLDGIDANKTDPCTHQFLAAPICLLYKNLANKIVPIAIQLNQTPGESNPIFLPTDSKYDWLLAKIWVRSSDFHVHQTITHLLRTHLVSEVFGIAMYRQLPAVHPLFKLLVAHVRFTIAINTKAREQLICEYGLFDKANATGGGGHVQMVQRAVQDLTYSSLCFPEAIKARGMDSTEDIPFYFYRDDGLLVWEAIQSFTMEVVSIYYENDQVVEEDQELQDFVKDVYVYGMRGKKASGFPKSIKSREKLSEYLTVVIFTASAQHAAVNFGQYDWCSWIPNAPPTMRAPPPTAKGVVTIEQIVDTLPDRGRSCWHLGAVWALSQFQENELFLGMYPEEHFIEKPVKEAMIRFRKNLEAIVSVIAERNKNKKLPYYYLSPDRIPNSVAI

B1: ORMDL3, endogenous in BMMC (protein, UniProt Q9CPZ6 1-153)
chain: MNVGTAHSEVNPNTRVMNSRGIWLSYVLAIGLLHVVLLSIPFVSVPVVWTLTNLIHNLGMYIFLHTVKGTPFETPDQGKARLLTHWEQMDYGVQFTASRKFLTITPIVLYFLTSFYTKYDQVHFILNTVSLMTVLIPKLPQLHGVRIFGINKY
**Q.** B1 was tested. Which binding (GST-5-LO) did it give?
**A.** binds

B2: SPTLC2, endogenous in BMMCL (protein, UniProt P97363 1-560)
chain: MRPEPGGCCCRRPMRANGCVKNGEVRNGYLRSSTATVAAAGQIHHVTENGGLYKRPFNEAFEETPMLVAVLTYVGYGVLTLFGYLRDFLRHWRIEKCHHATEREEQKDFVSLYQDFENFYTRNLYMRIRDNWNRPICSVPGAKVDIMERKSHDYNWSFKYTGNIIKGVINMGSYNYLGFARNTGSCQEAAAEVLKEYGAGVCSTRQEIGNLDKHEELEKLVARFLGVEAAMTYGMGFATNSMNIPALVGKGCLILSDELNHASLVLGARLSGATIRIFKHNNMQSLEKLLKDAIVYGQPRTRRPWKKILILVEGIYSMEGSIVRLPEVIALKKKYKAYLYLDEAHSIGALGPSGRGVVDYFGLDPEDVDVMMGTFTKSFGASGGYIGGKKELIDYLRTHSHSAVYATSMSPPVMEQIITSMKCIMGQDGTSLGKECIQQLAENTRYFRRRLKEMGFIIYGNEDSPVVPLMLYMPAKIGAFGREMLKRNIGVVVVGFPATPIIESRARFCLSAAHTKEILDTALKEIDEVGDLLQLKYSRHRLVPLLDRPFDETTYEETED
**Q.** B2 was tested. Which binding [1] did it give?
**A.** binds

B3: HA-ORMDL3 (protein, UniProt Q9CPZ6 1-153)
chain: MNVGTAHSEVNPNTRVMNSRGIWLSYVLAIGLLHVVLLSIPFVSVPVVWTLTNLIHNLGMYIFLHTVKGTPFETPDQGKARLLTHWEQMDYGVQFTASRKFLTITPIVLYFLTSFYTKYDQVHFILNTVSLMTVLIPKLPQLHGVRIFGINKY
**Q.** How did the binding [2] turn out when B3 was run?
**A.** binds

B4: FLAG-ORMDL3 (protein, UniProt Q9CPZ6 1-153)
chain: MNVGTAHSEVNPNTRVMNSRGIWLSYVLAIGLLHVVLLSIPFVSVPVVWTLTNLIHNLGMYIFLHTVKGTPFETPDQGKARLLTHWEQMDYGVQFTASRKFLTITPIVLYFLTSFYTKYDQVHFILNTVSLMTVLIPKLPQLHGVRIFGINKY
**Q.** B4 was tested. Which binding [2] did it give?
**A.** binds

B5: SPTLC1, long-chain 1 subunit of serine palmitoyltransferase, endogenous in HEK293FT (protein, UniProt O15269 1-473)
chain: MATATEQWVLVEMVQALYEAPAYHLILEGILILWIIRLLFSKTYKLQERSDLTVKEKEELIEEWQPEPLVPPVPKDHPALNYNIVSGPPSHKTVVNGKECINFASFNFLGLLDNPRVKAAALASLKKYGVGTCGPRGFYGTFDVHLDLEDRLAKFMKTEEAIIYSYGFATIASAIPAYSKRGDIVFVDRAACFAIQKGLQASRSDIKLFKHNDMADLERLLKEQEIEDQKNPRKARVTRRFIVVEGLYMNTGTICPLPELVKLKYKYKARIFLEESLSFGVLGEHGRGVTEHYGINIDDIDLISANMENALASIGGFCCGRSFVIDHQRLSGQGYCFSASLPPLLAAAAIEALNIMEENPGIFAVLKEKCGQIHKALQGISGLKVVGESLSPAFHLQLEESTGSREQDVRLLQEIVDQCMNRSIALTQARYLEKEEKCLPPPSIRVVVTVEQTEEELERAASTIKEVAQAVLL
**Q.** For B5, which binding [2] is on record?
**A.** binds

B6: SPTLC2, long-chain 2 subunit of serine palmitoyltransferase, endogenous in HEK293FT (protein, UniProt O15270 1-562)
chain: MRPEPGGCCCRRTVRANGCVANGEVRNGYVRSSAAAAAAAAAGQIHHVTQNGGLYKRPFNEAFEETPMLVAVLTYVGYGVLTLFGYLRDFLRYWRIEKCHHATEREEQKDFVSLYQDFENFYTRNLYMRIRDNWNRPICSVPGARVDIMERQSHDYNWSFKYTGNIIKGVINMGSYNYLGFARNTGSCQEAAAKVLEEYGAGVCSTRQEIGNLDKHEELEELVARFLGVEAAMAYGMGFATNSMNIPALVGKGCLILSDELNHASLVLGARLSGATIRIFKHNNMQSLEKLLKDAIVYGQPRTRRPWKKILILVEGIYSMEGSIVRLPEVIALKKKYKAYLYLDEAHSIGALGPTGRGVVEYFGLDPEDVDVMMGTFTKSFGASGGYIGGKKELIDYLRTHSHSAVYATSLSPPVVEQIITSMKCIMGQDGTSLGKECVQQLAENTRYFRRRLKEMGFIIYGNEDSPVVPLMLYMPAKIGAFGREMLKRNIGVVVVGFPATPIIESRARFCLSAAHTKEILDTALKEIDEVGDLLQLKYSRHRLVPLLDRPFDETTYEETED
**Q.** With B6 as the binder, how does the binding [2] read?
**A.** binds

From PMC8527048
